# From PubChem BioAssay AID1461 (National Center for Advancing Translational Sciences (NCATS), 2008)
# Out of some 220,000 compounds screened, about 2,300 (1%) were called active. The shares of active, inactive and inconclusive entries below differ from those in the screen. Calls follow the shape of the dose curve; as a rule, active = well fitted inhibition curve with a large enough effect; inconclusive = small, poorly fitted or top-dose-only effect, or effect the other way; inactive = no such curve, though single readings can be large or run the other way. No potency is given beside an inconclusive call; the fits are too rough.
# Biological target: Neuropeptide S receptor (Homo sapiens) (UniProt Q6W5P4)
# Assay: qHTS Assay for Antagonists of the Neuropeptide S Receptor: cAMP Signal Transduction; also: nearly all actives have a fitted effect of over 50% in size
# Conditions: CHO-NPSR cells, cAMP TR-FRET, antagonist mode; series mostly up to 38.3 µM
# Potency is read from the fitted curve at half-maximal effect; tags tell the direction and shape of the fitted curve.
# Sequence of UniProt Q6W5P4 (Q6W5P4 whole entry, looked up): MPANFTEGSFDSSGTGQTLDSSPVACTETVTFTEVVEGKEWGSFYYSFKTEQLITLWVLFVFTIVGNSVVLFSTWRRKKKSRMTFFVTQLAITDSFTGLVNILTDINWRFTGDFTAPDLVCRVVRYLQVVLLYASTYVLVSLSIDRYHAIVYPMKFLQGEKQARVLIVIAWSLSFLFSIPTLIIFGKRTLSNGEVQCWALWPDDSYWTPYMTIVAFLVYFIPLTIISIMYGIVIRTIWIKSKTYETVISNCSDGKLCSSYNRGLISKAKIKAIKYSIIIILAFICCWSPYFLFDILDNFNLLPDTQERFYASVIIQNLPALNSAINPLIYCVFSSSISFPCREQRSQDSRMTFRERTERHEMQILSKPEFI
row,Structure (SMILES),Potency
1,Cc1nc(-c2ccc(S(=O)(=O)N3CCCCCC3)cc2)cs1,"inconclusive [inhibitor, single point]"
2,Cc1ccc(Cn2ccc(-c3cnc(-c4ccccc4)s3)n2)cc1,inactive
3,CCc1nc(C)cn1S(=O)(=O)c1cc(C)c(OC)c(C)c1C,inactive
4,Cc1cc(NC(=O)CCC(=O)N(c2ccccc2)C2(C(=O)NC3CCCCC3)CCCC2)no1,"inconclusive [inhibitor, partial curve, poor fit]"
5,CCOC(=O)c1cc(C#N)c(N2CCN(C(=O)c3cccc(C(F)(F)F)c3)CC2)nc1C(F)(F)F,"inconclusive [activator, partial curve]"
6,Cc1ccc(NC(=O)N(Cc2cc3cc(C)cc(C)c3[nH]c2=O)CC2COCCO2)cc1 (stereo not given),"inconclusive [inhibitor, partial curve]"
7,CCCCNc1oc(-c2cccs2)nc1S(=O)(=O)c1ccccc1,"inconclusive [inhibitor, single point]"
8,CC(C)(C)OC(=O)N1CCC(c2cc(=O)n3[nH]cc(C(=O)Nc4ccc(F)c(Cl)c4)c3n2)CC1,"inconclusive [inhibitor, single point]"
9,COc1cc(Cl)c(C)cc1NC(=O)COC(=O)c1cc(SC)ccc1Cl,"inconclusive [activator, single point]"
10,Cc1cc(C)c2[nH]c(=O)c(CN(Cc3ccco3)C(=O)c3cccs3)cc2c1,"inconclusive [activator, single point]"
11,O=C(N/N=C/c1cccs1)c1cncc(Br)c1,inactive
12,CC(C)NS(=O)(=O)c1ccc(CCC(=O)N2CCc3ccccc3C2)cc1,inactive
13,CN1CCc2nc(NC(=O)c3cccc(S(=O)(=O)N4CCc5ccccc54)c3)sc2C1,inactive
14,CCOc1ccccc1C1C(C#N)=C(N)Nc2onc(-c3ccccc3)c21 (stereo not given),"inconclusive [inhibitor, partial curve]"
15,C/C(=N/NC(=O)c1ccc2c(c1)OCO2)c1ccc(Br)s1,inactive
16,NC(=O)c1sc2cc(C(F)(F)F)cnc2c1-c1cccs1,inactive
17,CC1CCN(C(c2ccc(N(C)C)cc2)c2nnnn2Cc2ccccc2)CC1 (stereo not given),"inconclusive [inhibitor, partial curve, poor fit]"
18,O=c1cc(CO)oc(C(Nc2ccccn2)c2cccc(F)c2)c1O (stereo not given),inactive
19,CCOc1ccc(NC(=O)Nc2cc(C(C)C)ccc2C)cc1,inactive
20,Cc1ccc(N=C2SC(C(=O)Nc3ccc(OC(F)(F)F)cc3)C(N)=C2C(=O)Nc2c(C)cc(C)cc2C)cc1 (stereo not given),"inconclusive [inhibitor, single point]"
21,Cc1ccc(C2(CCNS(=O)(=O)c3ccc(C)cc3)CCOC(C(C)C)C2)cc1 (stereo not given),"inconclusive [inhibitor, single point]"
22,CC1CCC(C(C)C)C2=C1C(C#N)(C#N)C(C#N)(C#N)C(c1ccccc1)N2 (stereo not given),"inconclusive [inhibitor, single point]"
23,O=c1oc2cc(O)ccc2c2ccccc12,active: 5.01 µM
24,CCCCn1nc(C(=O)N[C@@H](CCSC)c2nc3ccccc3[nH]2)c2ccccc2c1=O,"inconclusive [inhibitor, single point]"

row,Structure (SMILES),Potency
1,CCC(=O)Nc1nnc(SCC(=O)c2ccc3c(c2)Cc2ccccc2-3)s1,"inconclusive [inhibitor, single point]"
2,COc1cc(NC(=O)COC(=O)CNC(=O)c2ccc(C)cc2)c(C)cc1[N+](=O)[O-],"inconclusive [activator, single point]"
3,COCCOC(=O)C1=C(C)NC(C)=C(C(=O)OC(C)C)C1c1cccc([N+](=O)[O-])c1 (stereo not given),"inconclusive [inhibitor, partial curve]"
4,COc1cc([C@@H]2c3cc4c(cc3[C@@H](O)[C@@H](CO)[C@@H]2CO)OCO4)cc(OC)c1O[Si](C)(C)C(C)(C)C,"inconclusive [inhibitor, single point]"
5,NC(=O)c1cc(N2C(=O)C=CC2=O)ccc1Cl,"inconclusive [inhibitor, single point]"
6,O=c1c2ccccc2c(-c2ccc(F)cc2)nn1-c1ccc(C(F)(F)F)cc1,"inconclusive [inhibitor, single point]"
7,CCOc1cccc(/C=C2\NC(=S)N(c3ccccc3)C2=O)c1O,inactive
8,Cc1cccc(N2C(=O)CC(Sc3nc(C)cc(C)n3)C2=O)c1 (stereo not given),inactive
9,CC(C)(C)c1ccc(-c2nc(-c3ccncc3)no2)cc1,"inconclusive [activator, single point]"
10,Cc1ccc(C(=O)Nc2ccc(Cc3ccncc3)cc2)cc1[N+](=O)[O-],"inconclusive [inhibitor, single point]"
11,COc1ccc(C2CC(=O)c3cnc(Nc4cc(C)cc(C)c4)nc3C2)cc1 (stereo not given),"inconclusive [inhibitor, partial curve]"
12,Cc1ccc(-c2nc3ccccc3[nH]2)cc1NC(=S)NC(=O)c1ccccc1Br,"inconclusive [inhibitor, partial curve, poor fit]"
13,Cc1nnc(SCC(=O)c2ccc([N+](=O)[O-])cc2)s1,inactive
14,Cc1cc([N+](=O)[O-])ccc1NC(=O)Nc1ccc(F)cc1F,"inconclusive [inhibitor, single point]"
15,Cc1cccc(CSc2nc3c(cc2C#N)CCC3)c1,"inconclusive [inhibitor, single point]"
16,Cc1onc(-c2c(F)cccc2Cl)c1C(=O)Nc1nc2ccccc2[nH]1,"inconclusive [inhibitor, single point]"
17,CCCn1c(=NC(=O)c2ccco2)c(C(=O)OCC)cc2c(=O)n3ccccc3nc21,"inconclusive [inhibitor, partial curve]"
18,O=C(CN(Cc1ccccc1F)S(=O)(=O)c1ccc(Cl)cc1)NCCC1=CCCCC1,"inconclusive [inhibitor, partial curve]"
19,CCn1c(-c2csc(C(C)C)c2)n[nH]c1=S,inactive
20,C=CCNc1nnc(SC2CC(=O)N(c3ccc(OC)cc3)C2=O)s1 (stereo not given),inactive
21,CC(=O)c1cccc(NC(=O)CSC(=O)c2ccccc2)c1,inactive
22,FC(F)(F)c1nc(-c2cccs2)ncc1-c1nnnn1-c1ccc(Cl)cc1,"inconclusive [inhibitor, single point]"
23,CN(C)c1ccnc(SCc2ccccc2Cl)c1C#N,"inconclusive [inhibitor, full curve, poor fit]"
24,COc1ccc(-c2nc3c(Br)c(N)c(Br)cc3o2)cc1,"inconclusive [inhibitor, partial curve, poor fit]"

row,Structure (SMILES),Potency
1,Cc1cc(NC(=O)CN2CCCC2c2nc3ccccc3s2)no1 (stereo not given),"inconclusive [inhibitor, partial curve, poor fit]"
2,CCOC(=O)CSc1nc(N)c(C#N)c(-c2cccs2)c1C#N,"inconclusive [inhibitor, single point]"
3,NC(N)=Nc1nc2ccc(Br)cc2c(=O)[nH]1,"inconclusive [inhibitor, single point]"
4,CCCCN(CCCC)CP(=O)(c1ccccc1)c1ccccc1,"inconclusive [inhibitor, single point]"
5,O=C1C(Cl)=C(NCCc2ccccc2)C(=O)N1CCc1ccccc1,"inconclusive [inhibitor, single point]"
6,COC(=O)C1=C(C)N(C(C)c2ccccc2)C(=O)/C1=C\c1ccco1 (stereo not given),"inconclusive [inhibitor, single point]"
7,COCCNC(=O)C(C)N1c2cccc3cccc(c23)S1(=O)=O (stereo not given),"inconclusive [activator, full curve, poor fit]"
8,COc1ccccc1OCc1ccc(C(=O)N/N=C/c2ccco2)cc1,inactive
9,CCn1nc(C)c(NS(=O)(=O)c2ccccc2)c1C,inactive
10,COc1ccc2[nH]c(=O)c(CN(CCCN(C)C)C(=O)Nc3ccccc3)cc2c1,inactive
11,CCCCCC(=O)NC(=S)Nc1cccc(C(C)=O)c1,inactive
12,CC(=O)c1sc(N/N=C2\CC3CC2C(C)C3(C)C)nc1C (stereo not given),inactive
13,CCOc1ccc(-n2nnnc2-c2nc3ccccc3s2)cc1,"inconclusive [inhibitor, single point]"
14,CC1(C)CCSC(/C=C/c2ccccc2)=N1,"inconclusive [activator, single point]"
15,CCN(C(=O)c1ccc(NC(C)=O)cc1)c1ccccc1C,"inconclusive [inhibitor, single point]"
16,Nc1c(S(=O)(=O)c2cccs2)c2nc3ccccc3nc2n1CC1CCCO1 (stereo not given),inactive
17,Cc1ccccc1NC(=O)CSc1nc(N)c(C#N)c(-c2cccs2)c1C#N,"inconclusive [activator, single point]"
18,COC(=O)c1cc(Cl)c(NC(=O)/C=C/c2ccc(OC)c(OC)c2)cc1OC,"inconclusive [inhibitor, single point]"
19,O=C1/C(=C/c2cccnc2)SC(=S)N1N1CCOCC1,inactive
20,COc1ccc(C2C(Oc3ccccc3)C(=O)N2c2cc(C)ccc2C)cc1OC (stereo not given),"inconclusive [inhibitor, partial curve]"
21,COc1ccc(-c2cc(C(=O)OCC(=O)Nc3ccc4c(c3)OCO4)c3ccccc3n2)cc1,inactive
22,O=C(O)CCCCCCCCCCP(=O)(c1ccccc1)c1ccccc1,"inconclusive [inhibitor, single point]"
